± gives the standard deviation. This is a selection; strong and weak results do not stand in their true shares.

The experiment has as its system MIWI (PIWIL1) piRISC loaded with piRNA #1 (30 nt). As to the kind of experiment: pre-steady-state target cleavage rate (min^-1); MIWI and MILI are mouse PIWI proteins and EfPiwi is from a freshwater sponge; tags in brackets are library labels; higher = faster piRNA-guided slicing of the target. The conditions noted are these: guide: piRNA #1 5'p-UGAGGUAGUAGGUUGUAUAGUAUCCAGAGG; auxiliary factor: 500 nM mouse GTSF1. The procedure, abridged: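 The pre-steady-state cleavage rate came from a burst-and-steady-state fit to pooled data from three Cleave-'n-Seq trials, in which uncleaved targets were sequenced and normalised to depth and to weakly complementary targets. Each reaction held 0.1 nM transcribed, DNA-blocked target RNA library and 1 nM active affinity-purified piRISC carrying one synthetic guide, with or without 500 nM GTSF1 partner protein, in HEPES–potassium acetate buffer at 33 °C for 0–8 or 0–960 min. k3 was capped at 0.0001 min^-1.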
Regarding GGUCUGGAUACUAUACAACCUCCUACCUCA, the “pre-steady-state target cleavage rate” value came to 0.852 ± 0.044. The figure for GGAGAGGAUACUAUACAACCUACUACCAUCA is 0.303 ± 0.025; for GGAGAGGAUACUAUAGAUCCUACUACCUCA it is 0.922 ± 0.055; for GGAGACCUAUCUAUACAAGGUACUACCUCA it is 0.0102 ± 0.0028. The figure for CCUCUGGAUACUAUACAACCUACGUACCUCA is 0.422 ± 0.055; for GGAGACCUAUGUAUACAACCUUCUACGUCA it is 0.00673 ± 0.0022; for CCUCUGGAUACUAUACUACGUACUACCUCA it is 0.587 ± 0.053. The figure for GGACUGGAUACUACUACAACCUACUACCUCA is 1.48 ± 0.13; for GGAGACCUAUGAUAUCAACCUAGAUCCUCA it is less than 0.0001; for GGAGAGGAUACUGAUACAACCUACUACCUCA it is 1.3 ± 0.076.

GGAGACCUAUCUAAUCAACCUACUACCUCA: the “pre-steady-state target cleavage rate” value is 0.00495 ± 0.0024. The figure for GGAGACCAUACUAUUCAACGUACUACCUCA is 0.321 ± 0.028; for GGACUGGAAACUAUACAACCUUCUACCUCA it is 0.518 ± 0.052; for GGUCUCGAUACUAAACAACCUACUACCUCA it is 1.68 ± 0.12. With GGACUGGAUUCUAUACAACCUACUACCUCA, the “pre-steady-state target cleavage rate” value amounted to 1.63 ± 0.11. As for GGAGAGGAUAGUAUACAACCUACAACCUCA, the “pre-steady-state target cleavage rate” value was found to be 0.213 ± 0.03. The figure for GGAGACCUAUGUAUAGAACCUACUACCUCA is 0.126 ± 0.019; for CCUCUGGAUACUAAACAACCUAGUACCUCA it is 0.0925 ± 0.023. The figure for “GGAGACCUAUGAUAACAACCUACUUGGAGA [g7:g16:cont:t1A]” is less than 0.0001; for GGAGACCUAUCUAUACAACGUACUUCCUCA it is 0.0198 ± 0.0054; for GGAGACCAUACUAUACAACCGACUACCUCA it is 0.0109 ± 0.0016. The value for GGAGACCUUACUAUAGAACCUACUUCCUCA was 0.12 ± 0.036; that for CCACUGGAUACUUUACAACCUACUACCUCA was 1.99 ± 0.12.

With GGAGAGGAUACUAUACUACCUACUACCACA, the “pre-steady-state target cleavage rate” value came to 1.05 ± 0.07. The value for GGAGACCUAAGUAUAGAACCUACUACCUCA was 0.0385 ± 0.0096. The figure for GGAGACCUUACUAUACAACCUACUACCUUCA is 1.24 ± 0.086. The figure for GCUCUGGAUACUAUACAACCUACUAUCCUCA is 1.51 ± 0.11; for GGUCUGGAUACUAAACAACCUACUAGCUCA it is 0.198 ± 0.03; for GGUCUGGAUACUACUACAACCUACUACCUCA it is 1.53 ± 0.11. On to GGAGACCUAUCUAUACUACCUAGUACCUCA, for which the “pre-steady-state target cleavage rate” value is 0.00962 ± 0.002. The value for GGAGACCUAUAUAUACAACCUACUACCUCA was 0.175 ± 0.021; that for GGAGUGGAAACUAUACAACCUACUACCUCA was 1.58 ± 0.086; that for CCUCUGGAUACUAUCACAACCUACUACCUCA was 1.81 ± 0.14.

Turning to GGACUGGAUACUAUACAAGCUACUUCCUCA, the “pre-steady-state target cleavage rate” value was 0.407 ± 0.036.

For GGAGACCUAUCUAUACAACCUACUUCCACA, the “pre-steady-state target cleavage rate” value came to 0.0128 ± 0.0042.

In the case of GGACUGGAUACUAUACAACCUACUACCCA, the “pre-steady-state target cleavage rate” value was 0.107 ± 0.025.

Turning to CCCUGGAUACUAUACAACCUACUACCUCA, the “pre-steady-state target cleavage rate” value stood at 2.52 ± 0.18. The figure for “GGUCUGGAUACUAUACAACCAUGAUGGAGA [g11:g28:cont:t1A]” is less than 0.0001. GCUCACCAUACUAUACAACCUACUACCUCA: the “pre-steady-state target cleavage rate” value came out at 1.87 ± 0.13. GGAGUGGAUACUAAACAACCUAGUACCUCA: the “pre-steady-state target cleavage rate” value came to 0.315 ± 0.045.

These data come from the supplement of paper PMC10338343.
